# This is one part of the list. At the low end of the ranking, values are background and their order means little. The protein was read in a cell extract, so binding may be indirect.
# Molecular target: T1, HNF4alpha2 (COS-7 nuclear extract) (UniProt P41235)
# T1 sequence: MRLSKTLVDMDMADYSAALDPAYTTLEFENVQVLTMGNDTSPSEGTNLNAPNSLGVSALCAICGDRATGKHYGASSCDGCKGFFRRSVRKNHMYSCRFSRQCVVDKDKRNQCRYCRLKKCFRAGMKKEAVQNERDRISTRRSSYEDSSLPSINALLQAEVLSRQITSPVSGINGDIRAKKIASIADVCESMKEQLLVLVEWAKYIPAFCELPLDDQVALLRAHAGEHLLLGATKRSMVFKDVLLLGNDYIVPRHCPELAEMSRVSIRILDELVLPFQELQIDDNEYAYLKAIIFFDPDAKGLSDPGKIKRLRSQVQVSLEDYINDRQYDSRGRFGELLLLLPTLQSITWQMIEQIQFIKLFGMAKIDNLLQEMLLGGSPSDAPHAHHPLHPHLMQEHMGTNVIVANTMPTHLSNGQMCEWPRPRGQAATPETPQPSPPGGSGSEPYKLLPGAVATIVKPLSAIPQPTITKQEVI
# Assay: protein-binding microarray
# Conditions: COS-7 nuclear extract on double-stranded Agilent 4x180k PBM; binding buffer, salt, pH and temperature not given; high values mean tight binding; double strand, one strand shown; sequences stand for … in …GCCTAGGGAGATTAGAGTATCGGTCGA
row,Sequence,binding signal (log2 normalized intensity)
1,TTTAATTATCATCTCTGTGTATAAGACTCT,1.18
2,GAACGGAATGTGTGATAAGGAACTGTGTAA,1.15
3,ATCAGCAAGGGCATTTGCGTAGGCTGTCAG,0.263
4,ATAGGGTTCAAACTCCTATGTGAATCTAAT,1.11
5,GCAACCTTTGCTCTCCCTCCTCTCTGAGCA,1.7
6,GGATGGGGAGGGGGCAGGTAAGTACCAATA,-1.1
7,CACCTCGTCCAGGTGTCTTCAGGCTGGGGC,-0.695
8,TTCCCTACCCCCTGGGAGTAACCTGCTTGT,1.83
9,ATTTTCTCATCCCAGGGATAATGATAAAGA,-0.184
10,AGTCACACACACCTGTGTCCCCCAGGTCCA,3.02
11,AAGGTAGATACTATAATTAGAATCTGCAGG,-0.67
12,TTTCTGTATCTAATCTCAGATATGCTAATT,0.904
13,CTCTGCAGGAGGACTGGATCAATGGATCCA,-1.11
14,TACCCGGCAAAGAATTGTGAGTCCAGTTGA,0.86
15,GGCCCCAGCAGGCCAGGCCAAATCAGAACT,-1.16
16,CCCGGCCAGCAGATGAGCCTGTTGGGAGCC,-1.17
17,ATCTTCCAGGCCTCCAGCTCTTTTGAACCC,3.88
18,GGTCAAGAGGGCCTCTGCTTGTCTTGGTTG,0.619
19,CTCACTCTAAAGGAAGGGATTATAAAGCTT,-1.01
20,AAGGTGAAGGAGAATATTAGATGATAAGGG,-1.23
21,GGCCAGTTTCTCCACAGCCTCACCAACAGG,-1.05
22,TTCCCTGCAGAAAAGGCCCCAGGGATTGCA,1.41
23,CACATTCCAGAACCAAGATTTACATCCTAT,-1.08
24,CTTTATCTAGATAAGTTTATTTACTTATGT,1.49
25,GGCTGATGACCTTTGACTGAGATGGGAGCA,4.03

row,Sequence,binding signal (log2 normalized intensity)
1,CCATTTATAAGAAACTGCTCCTGCTTGGGA,-1.05
2,CCAAGGAAGGGCAAACTCTAGCTGTCCTCC,-1.08
3,TCGTCCCTTCCCTCTGTCTTCAAAACCACA,1.63
4,AACTGATTACTGCACCCCCTTCCCACCTGC,5.04
5,CCACTAAGAAGCCCAAGGTTAAAATCACAA,-1.05
6,AGCCGGCTCAAAATAGGCAAGACTGCCACC,-1.17
7,CCTTGACCCTTCCTCCCATTTGCTGCTCTA,2.08
8,CTTGCAGGGGGCCTCCTGCCCCAGGAGCAG,-1.19
9,TCCTGGAACTCTGACCTTTGCCCCCAGCCT,9.67
10,CACCTACTTGGGATGCTGAGGTGGGAGGAT,-0.924
11,CAGGTATTTGGACTTTTTGTAGTTTCAGCT,1.12
12,GGGTCAAGAAGCTCTGGCGCCATCTGGTTT,-1.1
13,ATAGAGAAGTTTTGAAACCCTGTTCTTGTA,0.729
14,TCTTAACATCAGAAGTTGGACTTTGTACAT,9.62
15,GATCTCAGGGTGGACTTTAAACATTCCCAC,4.53
16,CTCCTGGCAGAGCATAGAAGTAAGAAATCA,-0.894
17,AATCGCCTGATTGGTCATACTTGACCCACA,2.53
18,TGGTTGGATTTCTTGGCTTCTCTTGGACCT,3.15
19,CGGTCTGCCCTCTTGTCCTTCCCCTTTTGT,3.18
20,TGAACTTTGAACACCTCTTCTTTCTTCTCT,3.92
21,GAGAGGCTGCTCAGTTTAAGTCAAAATATA,-1.16
22,AAGTAGGGAGGAGGGGAGGGGCCCATGTGG,-1.02
23,CCGAGGTCACTGTATGCCCGAAAGACGCGG,-0.74
24,TAAAACCATGCAAATTGCTGACTTTCTGTG,-0.773
25,TAGCATCACGAAAGGCAACATCTTGAGCCA,-1.03

row,Sequence,binding signal (log2 normalized intensity)
1,TTGGGCGCCGGAACTGGTCCGGCCCGACTC,-1.05
2,CTACAATCCTCTAAAAAAATAGTTTCAACT,-0.731
3,AGGACATTTCAGCAAAGTTCAGAGAGGAAT,-0.746
4,TACTTAGATCAAGATTTTCAACTTGAGGAA,-0.715
5,TTTCCATTTACCTCCGCTGAACCTAGAGCT,-1.11
6,TAAGCTACTGAAAATGACCTTTGTTCCCTG,8.2
7,ATGTTCAAGAAGTTCCAAAGGCCAGTGTGG,1.2
8,TGGAAGTCGCCGTGAGGTTATTTGCAGACT,0.0984
9,AAAGTAAGGTGAAGCCCAGCAGCTCCAGGA,-1.4
10,AGAACTCTTCGAAGACACAAAGCTTGGGTT,-1.14
11,GTATCTGATCTGTGTTTCCACAAACACAGA,-0.616
12,ATCAAAGTATGAGAGCCTGAGAACACTTAT,-1.11
13,CTGACATTCTCCACTTGGTGACTGTCATTT,0.191
14,AGGAAGGTCTGATGGGCCAGGCAGGACAGT,-1.16
15,GGGATTACAGGCGTGAGCCACCGCGCCCCG,-0.976
16,GAGCACTCATTCCTATTCGGTGCTGACCTT,3.47
17,ACTGATAATTGAAAACAGAGATTGGGACTA,-1.11
18,ATGTCTAAGGTTTCTCAGCCCCATCCCCCA,5.41
19,GAATGTAAATAGCTAGGTACTTTGATCTAC,1.56
20,CAGGTTCAAAGGGCTTAATCTTTCCTGCCT,1.18
21,AGATCAAGATTTTCAACTTGAGGAAGACAA,-1.08
22,TCTGGCCTTTTTTTTGTGTGTGTGTCAGAG,2.77
23,TTGACCAAAGTACAGTAATTTCACTGATAT,1.55
24,ATACATTTTTAGGTGGATGCCTAGGATTCT,-0.973
25,TTGGAGATAAAGGAACAGGCCCCAGGGACT,-1.09

row,Sequence,binding signal (log2 normalized intensity)
1,TTTGAGTCATAAGAAACATTTTACAACCTA,-1.16
2,GGCACAATGCTGCAATTCTCTTTGCCAAAG,-1.04
3,GGAACAAAGGTCAGTCCCGCAGTGAGGGAC,2.4
4,TAACCAGTGAAATTGACAAGAGTGTGGCTC,0.829
5,GATTGCTTAATGCAAACTCCAGCATGAGGG,-1.21
6,TTTGTGTGAGGGAGAAGTTTTATGGCAGGG,1.19
7,AAGCAGCATAGGGAGAATGATAAGATATAT,-1.06
8,TCAGCCTGGCTGAAGACCTGTACAGGGACT,1.65
9,AGGCCAAGCAGCTGTGATGAGGCCAGCAGG,-1.06
10,TCTGTGTACAAAGCCCCATATTCATAGACT,2.32
11,TGCTTGGAATGCTATTTGCATTGACACAAC,0.296
12,TAGGACAGAGCAGATGAAAGTAGTTGGGGA,-1.02
13,GGGGAACAGGCCTCCCCCCTTCTGTTTCCA,3.15
14,ATTACCTGGTCAGAAGAAACATGCGATACT,-1.25
15,TAGGTGGTCTGTTTGTGAAACAGTGGGCAA,1.18
16,AAGTTACAAGATCTTTGGACTATTGTGAAG,2.77
17,GTAAAGGGTGACTTTCCAGAACTATCATAC,-0.841
18,TCAACCTGTGAAAATTGGTACTGGACATGG,1.38
19,CCTGGCTTGTAATTCAAGACTATAGACTGT,0.945
20,GACCATGTGATGTGAAGAGTGTGGACTTTC,4.26
21,GCGCCCGTAATCCCAGCTTATGTTTGCAAG,-0.714
22,TTATCTTGGGGCTAATGTCTCTCTGGCCGG,1.29
23,TTGTTTACTCATGTGGTCCTAAGACTAACC,-0.3
24,CCTGTGATACAACGGTTCAAAGGACAGACT,1.54
25,TTCTAGGTAATCACCCTCTCCACCCCCATG,4.99

row,Sequence,binding signal (log2 normalized intensity)
1,CAAGGTTTGTAACAAGTGCTTTCTTCCCTC,-0.296
2,TCATGGGTGACCCGTTAAGAATGAGACATT,1.53
3,GACCTTGAAATGCCATGTGATCTCTAGACT,0.785
4,AGCTGACGCCCCACCCCCTCCACCCCTGCC,6.82
5,CTCACCTGGCTTCCCTTTGATCTTTCCCTT,1.85
6,GAGGCTGCTCTCTGTCCCTGCACCCTACCC,1.6
7,CAACCACTCTTATCAGACAGGATATTTTGA,1.11
8,CTCTCCCCTCGACGCGCCGGCGCAGCCGCG,1.72
9,GTAGGCATAGGAGAAACACATAAACCCTGA,-0.951
10,TTCAGCCATTTTATGACCATGAGGTGACGG,1.6
11,TCTTTATTTATTAACTGGAGATAACACAAC,1.31
12,ACACCTGTGGGTAATTAATCTGATCGCCCT,0.983
13,TCTAATCAGGTCGCTGCCTGCCCCTCTGAC,2.89
14,CGGGTCAAGGGTTCAGGGCTCAGTTGACAT,2.13
15,GCTCAGGCACATTCTGCTGTGTATCACCTC,-0.959
16,AGCATGCTTGGAATATTTAAGGATCCAGAC,0.136
17,TCATAGTAAATCCACTTCTGAGGAGAAGAA,-1.1
18,CCTTTGTGCTGACTAAGAGGAGAAGCAAAT,-0.747
19,TTGTCCCTTTTCTATCCAGATGATCTTTAC,2.25
20,GCAAGAGTCCAAATTCCTAGCCCTCTTTCA,-0.00148
21,ATGATGAAATTTCCTCTTACCACATCTCAA,-0.2
22,TTCGGACATTCCAGGGAACAAGGGGTGGAT,-0.835
23,TCTGACCAACGCCTCCCTCCTTCCGCGGAC,1.13
24,TTACTTAATCCCTTGGAATGTCCTTTCCTC,1.55
25,TGGACTCTGTTTTAGTTGAGTGTGACAAGA,1.53

row,Sequence,binding signal (log2 normalized intensity)
1,GCAAATAAAGCTAACCAGCTCTATCAGTCT,-1.16
2,TCTGCGTCTTACTAAATGCAGCCTTGGGCA,-1.15
3,GGAGGTGACCTTTGGTTGTCCTTACTGCTA,3.3
4,TATGCTCACTGACCTCTGCCCTACTGTATA,3.46
5,AGTCTGACTACTTCTCACCACCTCTGCTGC,-1.11
6,TTCCTATCTCTACTTGCCGAAACATTTTCT,0.0166
7,CCACCTAATTTAGATATCGCTCCAAGAGCC,-1.21
8,ACTGAATGTGACCTTTTGGACCACAGAGTG,5.39
9,TTGACAGGCAACAATTTGAGGGGTCAAGAA,2.43
10,CTGACCTCTTTTGGATTTTTCCATATCTGT,1.74
11,ACATTTATTGGACTAGGCACAGGAACCTGT,-0.432
12,CAGCCACCAAAGCAGCTAGCAAATACAAGG,-1.14
13,GCCACAATTAATGTACCCCCGGAAACACGT,3.86
14,GGTAAACAGCCTCTAAGCACGGCCAGGATT,-1.24
15,ATCAAGGAGGACTTTGGAATGGCAGTGCTT,2.96
16,GGGAATTACTCTTCTATTACATGGAAGCCT,-0.78
17,ATCCTAGGAGAGCCAAATCTTAAGGGTTAA,0.079
18,TCGAATGGTATGCTAGAGTACTTGGACTTT,6.9
19,GGCCGTGGGTGGAAGGAAAAGAGGAAAACC,-1.12
20,AATACACAGCTAGCAGGTGACAAATCCAGG,-1.14
